The structures appear in SMILES notation. Hit rate of the full screen: of about 50,000 compounds, about 800 (1.6%) showed an effect of 50% or more. The list shows a part of the results.

This is an account of results in PubChem BioAssay AID1240 (Sanford-Burnham Center for Chemical Genomics, 2008).

In the test the target is Bcl-2-like protein 10 (Homo sapiens) (UniProt Q9HD36). Put plainly: Phenotype converters, Bcl-B/TR3 peptide binding displacement, primary biochemical FP (AID 1240).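 Further: 0% = Bcl-B with tracer peptide and DMSO and 100% = tracer peptide lacking Bcl-B.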 Particulars: GST-Bcl-B / FITC-TR3 peptide fluorescence polarization; stronger effect = higher value; compound at 3.75 mg/L. A general note: Fluorescence polarisation rises when a labelled molecule tumbles more slowly, as on binding a larger partner.
Chain of UniProt Q9HD36 (Q9HD36 whole entry, looked up): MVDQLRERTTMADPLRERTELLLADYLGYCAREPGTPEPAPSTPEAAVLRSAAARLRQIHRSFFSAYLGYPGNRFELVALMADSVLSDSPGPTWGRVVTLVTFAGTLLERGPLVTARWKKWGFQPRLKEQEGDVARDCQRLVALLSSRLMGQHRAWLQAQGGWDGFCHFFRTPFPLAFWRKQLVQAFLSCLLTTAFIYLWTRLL
Turning to `O=C(Nc1ccccc1)Nc1nnc(Cc2ccc(F)cc2)s1`, the displacement was found to be 11.1%.

For `CC(=O)N/N=C/c1cc(C)n(-c2cccc(Cl)c2)c1C`, the displacement is -19.5%.

For `O=C(c1cccc(F)c1)N1CCN(C(=O)c2cccs2)CC1`, the displacement was -30.1%.

With `CN(CCO)c1nc(-c2ccccc2)c2cc(Cl)ccc2n1`, the displacement was 8.1%.

Turning to `O=C1C(=O)N(c2nc3ccccc3s2)C(c2cccc([N+](=O)[O-])c2)/C1=C(/O)c1ccccc1` (stereo not given), the displacement is -4.8%.

With `O=C(Nc1ccc(Oc2ccccc2)cc1)c1cc2ccccc2oc1=O`, the displacement is 1.6%.

Regarding `COc1ccc(C2CC(C(F)(F)F)n3ncc(C(=O)Nc4cc(Cl)ccc4O)c3N2)cc1OC` (stereo not given), the displacement is -2.9%.

Regarding `COc1cc(C(=O)n2nc(C)c(Sc3ccccc3)c2C)cc(OC)c1OC`, the displacement is -15.6%.

For `Cc1ccc(Nc2nc(-c3ccc([N+](=O)[O-])cc3)cs2)cc1C`, the displacement was 1.5%.

In the case of `Cc1ccc(S(=O)(=O)NC(=O)Nc2cc(C(C)C)c(O)c(C(C)C)c2)cc1`, the displacement was -17.7%.

Regarding `O=C1C=CC(=O)N1c1cccc([N+](=O)[O-])c1`, the displacement is 11.4%.

Turning to `CCCC(=O)NC(Oc1ccc(/C=C2\SC(=S)N(CCCOC)C2=O)cc1)C(Cl)(Cl)Cl` (stereo not given), the displacement was found to be 9%.

As to `O=C(N=Nc1c(O)n(CN2CCCCC2)c2ccc(Br)cc12)c1ccncc1`, the displacement is -7%.

In the case of `CCOC(=O)C(=O)Nc1ccccc1C(=O)Nc1ccccc1Br`, the displacement is -17.9%.

Take `O=C(c1ccccc1Cl)N1CCN(C(c2ccccc2)c2ccccc2)CC1`: the displacement was 8%.

As for `COc1ccc(/C=C(/NC(=O)c2ccc(C(C)(C)C)cc2)C(=O)N2CCCC2)cc1OC`, the displacement was -5.5%.

For the compound `COc1cc(OC)cc(C(=O)N2CCN(c3ccc([N+](=O)[O-])cc3Cl)CC2)c1`, the displacement is 1.5%.

For the compound `O=C(N/N=C/c1ccc(O)cc1)c1cc(C2CC2)[nH]n1`, the displacement was -10.1%.

On to `O=C(O)C1CC=CCC1C(=O)NCCc1ccc(Cl)cc1` (stereo not given), for which the displacement was found to be 2.2%.

As to `COc1ccc(-c2csc(/C(C#N)=C/c3ccc(C)o3)n2)cc1OC`, the displacement is -31.7%.

As for `COC(=O)CN(c1ccccc1)S(C)(=O)=O`, the displacement came out at 17.5%.

Consider `CC(C(=O)Nc1ccc(-c2nc3ccccc3o2)cc1)(c1ccccc1)c1ccccc1`, for which the displacement is -5.1%.

As to `Cc1ccnc(NC(=O)Cc2ccc(Br)cc2)c1`, the displacement was determined as 8.8%.

With `Cn1c(O)c(N=NC(=O)COc2ccc3ccccc3c2)c2cc(Br)ccc21`, the displacement was found to be 2.3%.

Turning to `Cc1cc(C)cc(N=CC2=C(O)CC(c3ccccc3)CC2=O)c1` (stereo not given), the displacement was found to be 84.1%.

Turning to `Cc1ccc(N(C(=O)COc2ccc(Cl)cc2Cl)C2C=CS(=O)(=O)C2)cc1` (stereo not given), the displacement is -6.4%.

With `O=C(Nc1ccccn1)c1ccc(S(=O)(=O)c2ccccc2)cc1`, the displacement is -14.1%.

In the case of `Cc1c(O)ccc2c3c(c(=O)oc12)CCC3`, the displacement was determined as 12.3%.

As for `O=C(Nc1ccc(Cl)cc1)C1C2C3CCC(C3)C12` (stereo not given), the displacement was -3.9%.

For `COC(=O)CN(c1ccc(C)cc1)S(=O)(=O)c1ccc(F)cc1`, the displacement came out at 4.5%.
